Test results reported in article PMC6783653.
These are yes or no findings as the source states them, for the method shown. In cells and extracts the contact can be indirect. Some binding calls cover weakened binding; strength is not graded here. For some of these results: Sequences can lack the tags named with a protein.

By UniProt entry, the sequences of proteins in these tests, tags left out.
UniProt P62630: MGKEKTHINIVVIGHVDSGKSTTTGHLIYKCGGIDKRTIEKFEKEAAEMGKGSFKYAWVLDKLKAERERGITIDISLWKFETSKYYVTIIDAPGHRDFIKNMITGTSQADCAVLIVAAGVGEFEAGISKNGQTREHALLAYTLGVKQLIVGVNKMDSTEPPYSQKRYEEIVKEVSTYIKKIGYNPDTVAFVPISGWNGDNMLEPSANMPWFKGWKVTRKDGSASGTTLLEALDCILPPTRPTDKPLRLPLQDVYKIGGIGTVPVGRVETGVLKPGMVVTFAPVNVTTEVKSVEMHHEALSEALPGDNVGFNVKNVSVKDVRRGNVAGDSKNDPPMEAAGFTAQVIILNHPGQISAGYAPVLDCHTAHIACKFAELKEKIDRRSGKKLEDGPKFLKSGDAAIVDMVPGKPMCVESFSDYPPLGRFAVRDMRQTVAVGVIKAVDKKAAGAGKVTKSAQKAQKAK

B1: GST-tagged TIP30 full-length protein expressed in HEK cells (protein, UniProt B0BNF8 1-242)
chain: MADKETLLKLREDFKMQNKSVFILGASGETGKVLLKEILGQNLFSKVTLIGRRKLTFEEEAYNNVNQEVVDFEKLDEYAPAFQGHDVGFCCLGTTRRKAGADGFVRVDRDYVLKSAELAKAGGCKHFNLLSSRGADKSSSFLYLQVKGEVEAKVEELKFDRLSVFRPGVLLCDRQESRPGEWLARKFFGSLPDSWASGYAVPVVTVVRAMLNNLVSPGSGQMELLENKAILHLGKDSDGPKL
B2: endogenous TIP30 of neonatal rat cardiomyocytes (protein, UniProt B0BNF8 1-242)
chain: B1 chain
B3: TIP30-His full-length protein (protein, UniProt B0BNF8 1-242)
chain: B1 chain
B4: endogenous eEF1B2 of neonatal rat cardiomyocytes (protein, UniProt A6IPG1 1-225)
chain: MGFGDLKTPAGLQVLNDYLADKSYIEGYVPSQADVAVFEAISGPPPADLCHALRWYNHIKSYEKEKASLPGVKKSLGKYGPVSVADTTGSGAADAKDDDDIDLFGSDDEEESEDAKRLREERLAQYESKKAKKPAVVAKSSILLDVKPWDDETDMTKLEECVRSIQADGLVWGSSKLVPVGYGIKKLQIQCVVEDDKVGTDMLEEQITAFEDYVQSMDVAAFNKI
B5: TIP30 overexpressed by adenovirus (Ad.TIP30) in neonatal rat cardiomyocytes (protein, UniProt B0BNF8 1-242)
chain: B1 chain
B6: TIP30-ΔN52-His (domain or fragment, UniProt B0BNF8 53-242)
chain: RKLTFEEEAYNNVNQEVVDFEKLDEYAPAFQGHDVGFCCLGTTRRKAGADGFVRVDRDYVLKSAELAKAGGCKHFNLLSSRGADKSSSFLYLQVKGEVEAKVEELKFDRLSVFRPGVLLCDRQESRPGEWLARKFFGSLPDSWASGYAVPVVTVVRAMLNNLVSPGSGQMELLENKAILHLGKDSDGPKL

Tests used:
[1] = biological target: eEF1A1-Myc expressed in HEK cells (rat) (UniProt P62630); experiment: co-IP; HEK cells transfected with GST-TIP30 and eEF1A1-Myc; crosslinking with 0.5% PFA, lysis in 20 mM HEPES pH 7.6, 75 mM NaCl, 0.1% NP-40; Western blot
[2] = biological target: endogenous eEF1A1 of neonatal rat cardiomyocytes (rat (endogenous in neonatal rat cardiomyocytes)) (UniProt P62630); experiment: co-IP; endogenous proteins in NRCM after stimulation with phenylephrine for 24 h; crosslinking with 0.5% PFA, 20 mM HEPES pH 7.6, 75 mM NaCl, 0.1% NP-40
[3] = biological target: endogenous eEF1A1 of neonatal rat cardiomyocytes (rat (endogenous in neonatal rat cardiomyocytes)) (UniProt P62630); experiment: proximity ligation; Duolink in situ, neonatal rat cardiomyocytes, anti-TIP30 and anti-eEF1A1; control anti-TIP30 and anti-Myc
[4] = biological target: GST-tagged eEF1A1 (rat) (UniProt P62630); experiment: pull-down; GST or GST-eEF1A1 on glutathione agarose beads, TIP30-His full length and deletion mutants, 2 h at 4°C, Western blot
[5] = biological target: eEF1A1-Myc expressed by adenovirus (Ad.eEF1A1-Myc) in neonatal rat cardiomyocytes (rat) (UniProt P62630); experiment: co-IP; anti-Myc immunoprecipitation in PE-stimulated NRCM co-transduced with Ad.eEF1A1-Myc and Ad.con or Ad.TIP30; endogenous eEF1B2 detected
[6] = biological target: endogenous eEF1A1 of neonatal rat cardiomyocytes (rat (endogenous in neonatal rat cardiomyocytes)) (UniProt P62630); experiment: proximity ligation; Duolink in situ, unstimulated NRCM; anti-eEF1A1 and anti-eEF1B2
[7] = biological target: endogenous eEF1A1 of neonatal rat cardiomyocytes (rat (endogenous in neonatal rat cardiomyocytes)) (UniProt P62630); experiment: proximity ligation; Duolink in situ, NRCM transduced with Ad.Con or Ad.TIP30, stimulated with phenylephrine; anti-eEF1A1 and anti-eEF1B2

Binder | binding [4] | binding [5] | binding [7] | also measured
B1 | – | – | – | binding [1]: binds
B2 | – | – | – | binding [2]: binds; binding [3]: binds
B3 | binds | – | – | –
B4 | – | binds | binds | binding [6]: binds weakly
B5 | – | binds | binds | –
B6 | no binding | – | – | –
